{"source": "a collection of fitness landscapes (doi:10.1016/j.celrep.2020.107928)", "parents": {"B1": {"name": "Caulobacter ParB omega fusion; a variant is named by its letters at X, in order, B8GW30 (parent)", "chain": "MESVVVGEPGMSEGRRGLGRGLSALLGEVDAAPAQAPGEQLGGSREAPIEILQRNPDQPRRTFREEDLEDLSNSIREKGVLQPILVRPSPDTAGEYQIVAGERAWRAAQRAGLKTVPIMVRELDDLAVLEIGIIENVQRADLNVLEEALSYKVLMEKFERTQENIAQTIGKSXSHVANXMRLLXLPDEVQSYLVSGELTAXHARAIAAAADPVALAKQIIEGGLSVRETEALARKAPNLSAGKSKGGRPPRVKDTDTQALESDLSSVLGLDVSIDHRGSTGTLTITYATLEQLDDLCNRLTRGI"}}, "note": "Whole data set: some 81,000 sequences, median “one-hybrid fitness for binding parS DNA” near -0.17, cut for the highest 2% near 0.51. This is one part of the list."}
{"variants_of": "B1", "experiment": "one-hybrid fitness for binding parS DNA (scaled: cognate 1, non-cognate 0); higher = stronger binding", "conditions": "with parS DNA site", "outline": "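Selection: bacterial one-hybrid in E. coli USO, HIS3 reporter with the site 19 bp from the promoter, 48 hours at 37°C on M9-minus-histidine plus 0.1 mM IPTG and 5 mM 3-AT. Libraries were Caulobacter ParB with four randomised specificity codons, sequenced on Illumina before and after selection. Fitness is the rescaled log change in variant-to-wild-type read ratio, anchored to the cognate and non-cognate sites.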"}
{"variant": "HWGT", "one-hybrid fitness for binding parS DNA": "≤ 0.2"}
{"variant": "QNDA", "one-hybrid fitness for binding parS DNA": "≤ 0.2"}
{"variant": "CRTV", "one-hybrid fitness for binding parS DNA": "≤ 0.2"}
{"variant": "GWMR", "one-hybrid fitness for binding parS DNA": "≤ 0.2"}
{"variant": "IRAI", "one-hybrid fitness for binding parS DNA": "≤ 0.2"}
{"variant": "FARL", "one-hybrid fitness for binding parS DNA": "≤ 0.2"}
{"variant": "SDST", "one-hybrid fitness for binding parS DNA": "≤ 0.2"}
{"variant": "RISC", "one-hybrid fitness for binding parS DNA": 0.969}
{"variant": "WRLC", "one-hybrid fitness for binding parS DNA": "≤ 0.2"}
{"variant": "REWM", "one-hybrid fitness for binding parS DNA": "≤ 0.2"}
{"variant": "PAIN", "one-hybrid fitness for binding parS DNA": "≤ 0.2"}
{"variant": "LRLN", "one-hybrid fitness for binding parS DNA": "≤ 0.2"}
{"variant": "RFGG", "one-hybrid fitness for binding parS DNA": 0.918}
{"variant": "NMKE", "one-hybrid fitness for binding parS DNA": "≤ 0.2"}
{"variant": "SRAD", "one-hybrid fitness for binding parS DNA": "≤ 0.2"}
{"variant": "CGAK", "one-hybrid fitness for binding parS DNA": "≤ 0.2"}
{"variant": "TRRE", "one-hybrid fitness for binding parS DNA": "≤ 0.2"}
{"variant": "RFGD", "one-hybrid fitness for binding parS DNA": "≤ 0.2"}
{"variant": "PFFS", "one-hybrid fitness for binding parS DNA": "≤ 0.2"}
{"variant": "RYKA", "one-hybrid fitness for binding parS DNA": 0.793}
{"variant": "PARD", "one-hybrid fitness for binding parS DNA": "≤ 0.2"}
{"variant": "HSIK", "one-hybrid fitness for binding parS DNA": "≤ 0.2"}
{"variant": "VLSN", "one-hybrid fitness for binding parS DNA": "≤ 0.2"}
{"variant": "RQAW", "one-hybrid fitness for binding parS DNA": 0.228}
{"variant": "PIIS", "one-hybrid fitness for binding parS DNA": "≤ 0.2"}
{"variant": "RSIP", "one-hybrid fitness for binding parS DNA": "≤ 0.2"}
{"variant": "LMAM", "one-hybrid fitness for binding parS DNA": "≤ 0.2"}
{"variant": "AQEA", "one-hybrid fitness for binding parS DNA": "≤ 0.2"}
{"variant": "LRWG", "one-hybrid fitness for binding parS DNA": "≤ 0.2"}
{"variant": "FPPN", "one-hybrid fitness for binding parS DNA": "≤ 0.2"}
{"variant": "RSYC", "one-hybrid fitness for binding parS DNA": 0.931}
{"variant": "PAYL", "one-hybrid fitness for binding parS DNA": "≤ 0.2"}
{"variant": "CDTQ", "one-hybrid fitness for binding parS DNA": "≤ 0.2"}
{"variant": "YNSP", "one-hybrid fitness for binding parS DNA": "≤ 0.2"}
{"variant": "RMWF", "one-hybrid fitness for binding parS DNA": "≤ 0.2"}
{"variant": "RIKS", "one-hybrid fitness for binding parS DNA": 0.822}
{"variant": "GSDC", "one-hybrid fitness for binding parS DNA": "≤ 0.2"}
{"variant": "CMHC", "one-hybrid fitness for binding parS DNA": "≤ 0.2"}
{"variant": "ETPE", "one-hybrid fitness for binding parS DNA": "≤ 0.2"}
{"variant": "GTSC", "one-hybrid fitness for binding parS DNA": "≤ 0.2"}
{"variant": "SQAA", "one-hybrid fitness for binding parS DNA": "≤ 0.2"}
{"variant": "HCTG", "one-hybrid fitness for binding parS DNA": "≤ 0.2"}
{"variant": "RIGL", "one-hybrid fitness for binding parS DNA": "≤ 0.2"}
{"variant": "LGLC", "one-hybrid fitness for binding parS DNA": "≤ 0.2"}
{"variant": "EWGG", "one-hybrid fitness for binding parS DNA": "≤ 0.2"}
{"variant": "APQA", "one-hybrid fitness for binding parS DNA": "≤ 0.2"}
{"variant": "VHNL", "one-hybrid fitness for binding parS DNA": "≤ 0.2"}
{"variant": "CHMS", "one-hybrid fitness for binding parS DNA": "≤ 0.2"}
{"variant": "KKPS", "one-hybrid fitness for binding parS DNA": "≤ 0.2"}
{"variant": "SCPF", "one-hybrid fitness for binding parS DNA": "≤ 0.2"}
{"variant": "NHPF", "one-hybrid fitness for binding parS DNA": "≤ 0.2"}
{"variant": "PTEW", "one-hybrid fitness for binding parS DNA": "≤ 0.2"}
{"variant": "PKES", "one-hybrid fitness for binding parS DNA": "≤ 0.2"}
{"variant": "YMRR", "one-hybrid fitness for binding parS DNA": "≤ 0.2"}
{"variant": "NDEK", "one-hybrid fitness for binding parS DNA": "≤ 0.2"}
{"variant": "SHSR", "one-hybrid fitness for binding parS DNA": "≤ 0.2"}
{"variant": "QYYM", "one-hybrid fitness for binding parS DNA": "≤ 0.2"}
{"variant": "TDTY", "one-hybrid fitness for binding parS DNA": "≤ 0.2"}
{"variant": "RNPM", "one-hybrid fitness for binding parS DNA": "≤ 0.2"}
{"variant": "PLMD", "one-hybrid fitness for binding parS DNA": "≤ 0.2"}
{"variant": "NSRW", "one-hybrid fitness for binding parS DNA": "≤ 0.2"}
{"variant": "LKMN", "one-hybrid fitness for binding parS DNA": "≤ 0.2"}
{"variant": "WQSS", "one-hybrid fitness for binding parS DNA": "≤ 0.2"}
{"variant": "GLCD", "one-hybrid fitness for binding parS DNA": "≤ 0.2"}
{"variant": "YFQS", "one-hybrid fitness for binding parS DNA": "≤ 0.2"}
{"variant": "TCRQ", "one-hybrid fitness for binding parS DNA": "≤ 0.2"}
{"variant": "KKDR", "one-hybrid fitness for binding parS DNA": "≤ 0.2"}
{"variant": "YEGF", "one-hybrid fitness for binding parS DNA": "≤ 0.2"}
{"variant": "QLHD", "one-hybrid fitness for binding parS DNA": "≤ 0.2"}
{"variant": "RAVE", "one-hybrid fitness for binding parS DNA": "≤ 0.2"}
{"variant": "RDFY", "one-hybrid fitness for binding parS DNA": "≤ 0.2"}
{"variant": "ASCR", "one-hybrid fitness for binding parS DNA": "≤ 0.2"}
{"variant": "VVCV", "one-hybrid fitness for binding parS DNA": "≤ 0.2"}
{"variant": "RTPI", "one-hybrid fitness for binding parS DNA": "≤ 0.2"}
{"variant": "SCRH", "one-hybrid fitness for binding parS DNA": "≤ 0.2"}
{"variant": "LTMN", "one-hybrid fitness for binding parS DNA": "≤ 0.2"}
{"variant": "EPEG", "one-hybrid fitness for binding parS DNA": "≤ 0.2"}
{"variant": "WDES", "one-hybrid fitness for binding parS DNA": "≤ 0.2"}
{"variant": "AGRW", "one-hybrid fitness for binding parS DNA": "≤ 0.2"}
{"variant": "ETNA", "one-hybrid fitness for binding parS DNA": "≤ 0.2"}
{"variant": "PDIN", "one-hybrid fitness for binding parS DNA": "≤ 0.2"}
{"variant": "SIAC", "one-hybrid fitness for binding parS DNA": "≤ 0.2"}
{"variant": "QRMC", "one-hybrid fitness for binding parS DNA": "≤ 0.2"}
{"variant": "RWPP", "one-hybrid fitness for binding parS DNA": "≤ 0.2"}
{"variant": "AKGN", "one-hybrid fitness for binding parS DNA": "≤ 0.2"}
{"variant": "AHVL", "one-hybrid fitness for binding parS DNA": "≤ 0.2"}
{"variant": "ATPH", "one-hybrid fitness for binding parS DNA": "≤ 0.2"}
{"variant": "SGDW", "one-hybrid fitness for binding parS DNA": "≤ 0.2"}
{"variant": "TGHL", "one-hybrid fitness for binding parS DNA": "≤ 0.2"}
{"variant": "PHTC", "one-hybrid fitness for binding parS DNA": "≤ 0.2"}
{"variant": "NDYS", "one-hybrid fitness for binding parS DNA": "≤ 0.2"}
{"variant": "CAIM", "one-hybrid fitness for binding parS DNA": "≤ 0.2"}
{"variant": "IAAD", "one-hybrid fitness for binding parS DNA": "≤ 0.2"}
{"variant": "AVKD", "one-hybrid fitness for binding parS DNA": "≤ 0.2"}
{"variant": "YLTD", "one-hybrid fitness for binding parS DNA": "≤ 0.2"}
{"variant": "NANV", "one-hybrid fitness for binding parS DNA": "≤ 0.2"}
{"variant": "QMDE", "one-hybrid fitness for binding parS DNA": "≤ 0.2"}
